Data: PubChem BioAssay AID488969 (Vanderbilt High Throughput Screening Facility, 2010)
Whole data set: some 110,000 compounds, median “z-score” near -0.1, cut for the highest 2% near 2. This is one part of the list. Activity calls are given as the source filed them.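 The calls were made as follows: active = z-score in the third read window above 3 or below -3; inactive = the rest.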

Each compound was assayed against Metabotropic glutamate receptor 8 (Rattus norvegicus) (UniProt P70579) (assay: mGluR8 Gi/Go-coupled signaling modulation – cell-based, rat, thallium flux, HTS, primary screen (AID 488969)). Conditions: HEK293 rat mGluR8, GIRK (G protein-gated inwardly rectifying potassium channel) thallium flux, FluoZin2; at 10 µM; stronger effect = higher value; submaximal glutamate (EC20) added with thallium.
UniProt P70579, sequence (P70579 whole entry, looked up): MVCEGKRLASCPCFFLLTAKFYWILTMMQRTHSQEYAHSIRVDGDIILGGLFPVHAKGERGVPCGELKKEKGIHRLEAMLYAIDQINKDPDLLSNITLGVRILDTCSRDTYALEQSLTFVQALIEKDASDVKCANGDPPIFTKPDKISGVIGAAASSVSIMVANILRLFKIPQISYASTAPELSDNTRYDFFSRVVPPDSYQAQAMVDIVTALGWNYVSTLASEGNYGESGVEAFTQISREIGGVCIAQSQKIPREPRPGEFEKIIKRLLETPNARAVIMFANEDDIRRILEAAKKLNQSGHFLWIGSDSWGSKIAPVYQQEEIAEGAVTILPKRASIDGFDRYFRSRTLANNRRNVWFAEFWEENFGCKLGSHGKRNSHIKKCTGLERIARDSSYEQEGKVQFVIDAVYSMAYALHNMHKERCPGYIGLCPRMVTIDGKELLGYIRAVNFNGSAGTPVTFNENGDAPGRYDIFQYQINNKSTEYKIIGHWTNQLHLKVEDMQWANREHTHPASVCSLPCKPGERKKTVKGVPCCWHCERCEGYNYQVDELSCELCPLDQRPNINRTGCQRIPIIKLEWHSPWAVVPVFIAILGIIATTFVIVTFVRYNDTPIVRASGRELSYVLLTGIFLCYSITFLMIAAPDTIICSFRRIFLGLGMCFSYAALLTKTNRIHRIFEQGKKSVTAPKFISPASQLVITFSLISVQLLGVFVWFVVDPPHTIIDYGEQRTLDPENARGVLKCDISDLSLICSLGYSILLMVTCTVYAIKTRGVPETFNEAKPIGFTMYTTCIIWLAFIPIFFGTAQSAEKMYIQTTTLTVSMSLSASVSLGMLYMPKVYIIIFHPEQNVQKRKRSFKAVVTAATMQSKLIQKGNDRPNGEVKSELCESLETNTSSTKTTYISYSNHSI
Work on `CC(=O)Nc1ccc(S(=O)(=O)N2CCN(Cc3cccnc3)CC2)cc1` yielded a z-score of 0.0269.
With `Cc1ccc(Cc2c(C)nc3c(C(=O)O)cnn3c2C)cc1` the z-score was 0.0858.
In the case of `C=CCOC(=O)C1=C(C)NC(C)=C(C(=O)OCC=C)C1/C=C/c1ccccc1`, the z-score is reported as -0.324.
`CCOC(=O)c1cccc2c(=O)c(C(=O)c3ccc(Cl)cc3)c(C(=O)OC)[nH]c12` gave a z-score of -0.264.
In the case of `Cc1cccc(CN(CC(=O)N/N=C/c2cccs2)S(=O)(=O)c2ccc(Cl)cc2)c1`, the z-score is reported as 0.833.
For `Cc1cccc2c(=O)cc(C)n(CC(=O)N3CCCCC3)c12`, the z-score was active: 3.39.
`Cc1ccc(/C(C#N)=C\c2ccc(N3CCOCC3)o2)cc1` gave a z-score of -0.0585.
With `Cn1c(COc2ccccc2)nnc1SCC(=O)Nc1ccc(S(N)(=O)=O)cc1` the z-score was -0.284.
`O=C1C2CC=C(Cl)CC2C(=O)N1c1ncn[nH]1` (stereo not given) showed a z-score of -0.208.
With `O=S(=O)(Nc1ccc(N2CCOCC2)cc1)c1cccs1` the z-score was -0.527.
Compound `Cc1ccccc1C(=O)c1cccn1CC(=O)NCCN1CCN(c2cccc(C)c2C)CC1` has a z-score of 1.1.
Work on `CCCCSc1nnc(-c2ccc(C)cc2)o1` yielded a z-score of 0.892.
Work on `Cc1c(C(=O)N2CCN(c3ccc(F)cc3)CC2)sc2nc(-c3ccccc3)cn12` yielded a z-score of -0.0686.
`O=C(NCCN1CCOCC1)c1cccc(Cl)c1` showed a z-score of -0.187.
Compound `CCN(CCC(=O)Nc1ccc(Br)c(C)c1)Cc1ccccc1` has a z-score of 0.441.
Work on `CCCCCCC(=O)N1CCC(c2nc3c(nnn3Cc3ccccc3Cl)c(=O)[nH]2)CC1` yielded a z-score of -0.0143.
With `Cc1cccc(NC(=O)CN2CCC(NC(=O)C3CCCCC3)CC2)c1C` the z-score was -0.296.
For `Cc1ccccc1C(=O)NC1CCN(C(=O)N(c2ccccc2)c2ccccc2)CC1`, the z-score was -0.364.
`COC(=O)C1=C(C)NC(=O)C1(NS(=O)(=O)c1ccc(NC(C)=O)cc1)C(F)(F)F` (stereo not given) gave a z-score of -0.0276.
Work on `CC(C)C(=O)NNC(=O)c1ccccn1` yielded a z-score of -0.197.
In the case of `O=[N+]([O-])c1ccccc1Sc1nccn1Cc1ccccc1`, the z-score is reported as -0.0656.
In the case of `COc1ccccc1C(=O)n1nc(-c2ccccc2)nc1NCc1ccco1`, the z-score is reported as -0.67.
In the case of `COCCN(C(=O)CC(C)(C)C)c1nnc(-c2cccnc2)s1`, the z-score is reported as -0.069.
For `O=C(Cc1sc(-c2ccccc2Cl)nc1-c1ccccc1)Nc1ccc(F)cc1`, the z-score was 0.407.
With `O=C(c1ccc(-n2c(SCc3cc(F)ccc3F)nc3ccccc3c2=O)cc1)N1CCOCC1` the z-score was -0.129.
In the case of `CCC(=O)NC(=S)Nc1ccc(S(=O)(=O)NC(C)C)cc1`, the z-score is reported as -0.145.
Compound `CC/C(C)=N\N=C\c1c(O)n(CC)c2cc(C3=NNC(=O)CC3)ccc12` has a z-score of -0.413.
For `CC(=O)/C(=C\Nc1ccc(OCc2ccccc2)cc1)c1ccccc1`, the z-score was 0.0776.
With `CC1(C)CC(=O)C2=C(C1)N(c1ccccc1)C(N)=C(C#N)C2c1ccsc1` (stereo not given) the z-score was active: -3.95.
`CCCCN(C)C(=O)C(Cc1ccccc1)NS(=O)(=O)c1ccc2c(c1)CCC(=O)N2` (stereo not given) was tested, and the z-score was 0.0641.
`Cc1ccc(S(=O)(=O)CCc2nc3ccccc3n2CCC#N)cc1` gave a z-score of -0.167.
Work on `CNC(=O)c1cc2c(s1)CCCCCC2` yielded a z-score of -0.211.
With `COc1cc(C(=O)NCCN2CCOCC2)cc(OC)c1OC` the z-score was -0.821.
Work on `Cc1ccc(C)c(N(C)C(=O)COc2cc(=O)n(C)c3ccccc23)c1` yielded a z-score of -0.0854.
Work on `CC1=CCC(/C=N\Nc2nnc3c(n2)[nH]c2ccccc23)CC1` (stereo not given) yielded a z-score of -0.285.
`O=C(NCCc1ccccc1)c1ccc(=O)[nH]c1` showed a z-score of -0.179.
`NS(=O)(=O)c1cccnc1Nc1cccc(Cl)c1` was tested, and the z-score was 0.214.
Work on `Cc1nc2ncnn2c(C)c1CCC(=O)N1CCN(Cc2ccccc2)CC1` yielded a z-score of -0.498.
`CCc1cc(-c2n[nH]c(=S)n2CC(C)C)cs1` showed a z-score of 1.12.
For `c1cncc(-c2nnc(-c3cccnc3)nn2)c1`, the z-score was -0.0178.
For `c1ccc(-n2nnnc2-n2nnc3ccccc32)cc1`, the z-score was -0.315.
For `Cc1c(Cl)cccc1NC(=O)CSCc1cc(=O)[nH][nH]1`, the z-score was 0.139.
Work on `CCCCn1c(SCC(=O)c2ccccc2)nc2c1c(=O)[nH]c(=O)n2C` yielded a z-score of -0.0394.
`COc1ccc(S(=O)(=O)N2CCCC(C(=O)NCc3ccncc3)C2)cc1` (stereo not given) was tested, and the z-score was -0.0814.
With `Cc1ccc2nc(-c3sc4nc(C)cc(C)c4c3N)[nH]c2c1` the z-score was -0.162.
For `COc1ccc(OC)c(C2C(C(=O)c3cccs3)=C(O)C(=O)N2c2cc(C)on2)c1` (stereo not given), the z-score was active: -4.72.
`Cc1ccc(C)n1NC(=O)c1ccc(Cl)cc1` gave a z-score of 0.186.
For `Cn1c(=O)c2c(ncn2CC(=O)Nc2ccc(N3CCOCC3)cc2)n(C)c1=O`, the z-score was 0.202.
`COc1ccc2cc(C)c(SCC(=O)Nc3cc(C)on3)nc2c1` was tested, and the z-score was -0.00116.
`Cc1cc(Oc2cc(N)cc([N+](=O)[O-])c2)ccc1Cl` gave a z-score of 0.0378.
With `CN(C)c1nccc(N(Cc2ccccc2)Cc2ccccc2)c1C#N` the z-score was 0.368.
With `CC(CNC(=O)c1cc(Cl)ccc1[N+](=O)[O-])NC(=O)c1cc(Cl)ccc1[N+](=O)[O-]` (stereo not given) the z-score was -0.0709.
For `Cc1ccc(-n2nnnc2-c2cnn(-c3cccc(F)c3)c2C(F)(F)F)cc1`, the z-score was 0.0555.
`O=C1CC(c2ccccc2)C(=O)N1c1cccc(O)c1` (stereo not given) was tested, and the z-score was 0.454.
Work on `Cc1ccc(NC(=O)CN2CCN(CCN=CC3=C(O)CC(c4ccccc4)CC3=O)CC2)cc1` (stereo not given) yielded a z-score of -0.283.
Compound `COC(=O)c1cc(OC)c(OC)cc1NC(=O)c1c(-c2ccccc2)noc1C` has a z-score of -0.341.
Work on `CCc1nnc(NS(=O)(=O)c2ccc(NC(=S)NC(=O)/C=C/c3ccc(C(C)C)cc3)cc2)s1` yielded a z-score of -0.159.
With `COc1ccc(N2C(=O)C3CCCN3C2c2ccc(C)cc2)cc1Cl` (stereo not given) the z-score was -0.144.
`CC(=O)c1cnc2c(-c3ccc(Cl)cc3)cnn2c1C` was tested, and the z-score was 0.0303.
For `O=C1NCCCc2c1no[n+]2[O-]`, the z-score was -0.937.
Work on `CCCCCCn1c(SCC(C)C)nc2c1c(=O)[nH]c(=O)n2C` yielded a z-score of -0.998.
For `CCc1cc(/C(Cc2cscn2)=N\O)c(O)cc1O`, the z-score was -0.0483.
`CC/C(C)=C1\SC(N2CCN(C(C)=O)CC2)=NC1=O` gave a z-score of -0.255.
With `COC(=O)CSC1=C(C#N)C(c2cccc(F)c2)CC(=O)N1` (stereo not given) the z-score was -0.27.
In the case of `C=CC[C@H]1CC(Cc2ccccc2)=C[C@H](CC=C)N1`, the z-score is reported as 0.926.
`Cn1c(=O)n(CCCOc2ccc(Cl)cc2)c2ccccc21` showed a z-score of 0.163.
In the case of `COc1cc(OC)cc(C(=O)N[C@H](C(=O)OCC(=O)Nc2ccc(F)c(F)c2)C(C)C)c1`, the z-score is reported as 0.0207.
Work on `O=C(Nc1cccc(Cl)c1)C1CCCN(S(=O)(=O)c2cnc[nH]2)C1` (stereo not given) yielded a z-score of -0.0369.
Work on `Cc1ccc2cccnc2c1NC(=S)NC(=O)c1ccccc1` yielded a z-score of 0.544.
`CC(C)n1nnnc1SCC(=O)NNC(=O)C1CCCCC1` gave a z-score of -0.128.
